From publication PMC13434659
These are yes or no findings as the source states them, for the method shown. Binding seen in cells or lysates may run through a third protein. Some entries that bind do so weakly or less than the wild type. For some of these results: Where a sequence is shown, tags or fusion partners need not be part of it. Blank lines part the entries; values can stand above or below the binder they belong to.

How the values were obtained:
[1] = molecular target: T1, GST-RASSF4 truncation protein M1-P156 (human) (UniProt Q9H2L5); experiment: pull-down; purified GST-tagged protein on glutathione beads incubated overnight at 4 °C with lysate of HEK cells over-expressing the Flag-tagged protein; washes in 50 mM Tris/HCl pH 7.5, 150 mM NaCl, 1 mM EDTA, 0.5% Nonidet P-40; Western blot; only the target purified
T1 sequence: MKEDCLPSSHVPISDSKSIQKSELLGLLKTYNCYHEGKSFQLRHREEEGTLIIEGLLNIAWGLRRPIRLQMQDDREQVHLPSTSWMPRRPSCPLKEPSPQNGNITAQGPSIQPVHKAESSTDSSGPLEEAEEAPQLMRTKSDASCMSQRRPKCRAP

[2] = molecular target: T2, GST-tagged RASSF4 (human) (UniProt Q9H2L5); experiment: as above
T2 sequence: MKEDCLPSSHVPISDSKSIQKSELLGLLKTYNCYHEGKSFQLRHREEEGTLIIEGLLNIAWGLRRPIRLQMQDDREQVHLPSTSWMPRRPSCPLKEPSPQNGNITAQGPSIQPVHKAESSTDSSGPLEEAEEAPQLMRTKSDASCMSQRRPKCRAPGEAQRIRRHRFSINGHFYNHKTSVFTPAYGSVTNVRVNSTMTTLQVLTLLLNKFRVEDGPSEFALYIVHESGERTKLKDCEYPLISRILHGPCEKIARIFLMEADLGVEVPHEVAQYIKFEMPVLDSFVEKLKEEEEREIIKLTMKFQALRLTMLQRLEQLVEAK

[3] = molecular target: T3, endogenous PKD2 of mouse kidney (mouse (endogenous in C57BL/6 kidney)) (UniProt O35245); experiment: co-IP; kidney lysate of an 8-week-old C57BL/6 mouse, both proteins endogenous
T3 sequence: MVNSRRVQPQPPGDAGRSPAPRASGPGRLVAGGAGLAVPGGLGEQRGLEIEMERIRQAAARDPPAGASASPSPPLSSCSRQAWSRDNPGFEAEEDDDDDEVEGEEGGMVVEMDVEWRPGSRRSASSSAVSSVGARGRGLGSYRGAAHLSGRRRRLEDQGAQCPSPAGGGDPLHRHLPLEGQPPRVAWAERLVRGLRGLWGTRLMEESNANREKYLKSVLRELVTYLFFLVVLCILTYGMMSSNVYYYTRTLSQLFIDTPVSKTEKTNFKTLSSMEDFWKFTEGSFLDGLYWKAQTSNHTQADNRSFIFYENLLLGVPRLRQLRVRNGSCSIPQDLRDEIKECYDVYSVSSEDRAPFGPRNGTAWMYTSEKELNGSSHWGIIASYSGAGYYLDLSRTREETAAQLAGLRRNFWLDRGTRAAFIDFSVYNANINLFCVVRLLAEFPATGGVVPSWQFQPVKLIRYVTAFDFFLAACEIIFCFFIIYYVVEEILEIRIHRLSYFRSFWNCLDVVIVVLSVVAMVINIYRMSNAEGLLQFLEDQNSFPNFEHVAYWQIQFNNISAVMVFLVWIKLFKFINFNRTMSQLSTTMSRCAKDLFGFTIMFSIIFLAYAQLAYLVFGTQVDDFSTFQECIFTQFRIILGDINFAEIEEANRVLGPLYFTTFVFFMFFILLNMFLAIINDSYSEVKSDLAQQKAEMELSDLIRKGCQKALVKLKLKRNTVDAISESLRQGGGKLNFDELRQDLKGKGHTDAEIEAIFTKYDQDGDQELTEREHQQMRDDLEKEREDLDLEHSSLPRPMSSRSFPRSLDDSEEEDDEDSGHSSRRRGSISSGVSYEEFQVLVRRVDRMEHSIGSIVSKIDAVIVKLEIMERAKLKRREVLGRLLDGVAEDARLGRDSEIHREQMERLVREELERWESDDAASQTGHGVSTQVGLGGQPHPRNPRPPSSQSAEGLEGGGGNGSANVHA

[4] = molecular target: T4, VC-PKD2 (Venus C-terminal half fused to PKD2) (human) (UniProt Q13563); experiment: split reporter; BiFC with Venus halves VN and VC fused to the N-terminal ends, transfected HEK cells, confocal microscopy 36-48 h after transfection
T4 sequence: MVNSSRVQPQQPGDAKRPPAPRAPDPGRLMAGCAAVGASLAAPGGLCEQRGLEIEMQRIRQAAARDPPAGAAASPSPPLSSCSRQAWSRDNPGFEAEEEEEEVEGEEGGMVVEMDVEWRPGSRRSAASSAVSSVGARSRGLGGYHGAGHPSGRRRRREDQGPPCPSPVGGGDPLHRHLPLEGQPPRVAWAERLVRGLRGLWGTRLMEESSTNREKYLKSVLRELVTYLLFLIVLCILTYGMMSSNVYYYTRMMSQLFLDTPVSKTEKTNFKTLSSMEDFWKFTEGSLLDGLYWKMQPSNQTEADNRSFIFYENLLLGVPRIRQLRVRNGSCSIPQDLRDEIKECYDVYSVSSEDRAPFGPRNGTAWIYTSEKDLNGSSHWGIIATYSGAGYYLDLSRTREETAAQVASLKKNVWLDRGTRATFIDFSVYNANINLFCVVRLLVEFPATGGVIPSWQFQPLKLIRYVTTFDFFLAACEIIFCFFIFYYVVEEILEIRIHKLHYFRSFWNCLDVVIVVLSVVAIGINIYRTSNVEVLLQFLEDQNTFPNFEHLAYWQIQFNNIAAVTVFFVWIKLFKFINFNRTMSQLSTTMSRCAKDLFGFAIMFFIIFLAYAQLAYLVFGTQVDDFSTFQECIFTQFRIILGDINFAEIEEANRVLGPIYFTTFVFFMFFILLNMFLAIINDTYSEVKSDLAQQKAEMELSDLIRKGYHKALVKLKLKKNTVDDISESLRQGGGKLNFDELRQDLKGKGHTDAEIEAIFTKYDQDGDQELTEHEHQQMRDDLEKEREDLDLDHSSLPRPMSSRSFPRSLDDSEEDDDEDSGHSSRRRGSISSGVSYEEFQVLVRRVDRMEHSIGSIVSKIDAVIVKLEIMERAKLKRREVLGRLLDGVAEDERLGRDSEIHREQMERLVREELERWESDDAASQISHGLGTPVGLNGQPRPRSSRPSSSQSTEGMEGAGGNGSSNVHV

binding [1]: binds | binding [2]: binds
B1: Flag-tagged PKD2 (protein, UniProt Q13563 1-968)
chain: T4 sequence

binding [3]: binds
B2: endogenous RASSF4 of mouse kidney (protein, UniProt Q8CB96 1-322)
chain: MKEACSSSSHVPVSDSKYILKSELLSLLKTYNCYHEGRSFQLRHREEEGTLIIEGLLNIAWGLRRPIRLQMQDDRERVHLPSATWVPERLSYLQKEASPQDSKVPTEEPGTQPANKAEVSGDSSGALEGEEEEVPQLMRTKSDASCIIQRRSKSRAPSEAQKIRRHRFSINGHFYNHKTSVFTPAYGSVTNVRVNSTMTTQQVLTLLLNKFRVEDGPSEFALYTVHESGEQTKLKDCEYPLISRILHGPCEKIVKIFLMEADLSEEVPHDVAQYIKFEMPVLDSFVEKLKEEEEREIIKLTMKFQALRLTMLQRLEQLVEAK

binding [4]: binds
B3: VN-RASSF4 (Venus N-terminal half fused to RASSF4) (protein, UniProt Q9H2L5 1-321)
chain: T2 sequence
